From the supplement of paper PMC10126150
Sequences with one replicate were seen in a single cluster, so their values are uncertain.
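Further: ATP exposure 15 min at 22 °C before imaging.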

These sequences were tested on ATP (assay: switch fluorescence ratio, 500 uM ATP over buffer (Cy3 cluster intensity, sum of 5 cycles each) (fold (ratio)); higher = stronger signal-on switching upon ATP binding; sequences stand for … in TCGTCGGCAGCGTCAGATGTGTATAAGAGACAGTTTTTTTTTTTTTTTTTTTTTTTTT…TC). Conditions: aptamer strand: ATP DNA aptamer (quencher-CACCTGGGGGAGTATTGCGGAGGAAGG + anchor), 100 nM annealed; ATP concentration: 500 uM; one replicate.
In short: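 For every switch-domain sequence, the fluorescence ratio is the mean of per-cluster values, each being summed target-cycle Cy3 intensity over summed buffer-cycle Cy3 intensity. Clusters outside 100-1000 RFU were excluded. On a modified Illumina MiSeq flow-cell, the Cy3-labelled switching-strand clusters were annealed to 100 nM quencher-labelled ATP aptamer, imaged in selection buffer and then after 15 min with 500 uM ATP at 22 °C. Five such cycles were run, with NaOH stripping and re-annealing between them.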
With AGCTTGTACG the switch fluorescence ratio was 1.09.
AGGAAATTGA was tested, and the switch fluorescence ratio was 1.01.
AGGAACCATA gave a switch fluorescence ratio of 1.06.
AGGAAGCTTA was tested, and the switch fluorescence ratio was 0.995.
For AGGAAGCTTT, the switch fluorescence ratio was 0.978.
In the case of AGGAAGGCAT, the switch fluorescence ratio was 0.936.
With AGGAAGGGCA the switch fluorescence ratio was 0.958.
In the case of AGGAATATCG, the switch fluorescence ratio was 1.02.
AGGAATTTCC gave a switch fluorescence ratio of 0.98.
AGGACACCGT was tested, and the switch fluorescence ratio was 1.02.
In the case of AGGACAGGTA, the switch fluorescence ratio was 1.02.
AGGACATTTC was tested, and the switch fluorescence ratio was 1.06.
For AGGACCAAA, the switch fluorescence ratio was 1.02.
In the case of AGGACCTCAT, the switch fluorescence ratio was 1.01.
Sequence AGGACGCGAT has a switch fluorescence ratio of 4.93.
In the case of AGGACGTCG, the switch fluorescence ratio was 0.955.
AGGACGTTAG showed a switch fluorescence ratio of 0.994.
AGGACTAGCC gave a switch fluorescence ratio of 1.01.
AGGACTGTAC gave a switch fluorescence ratio of 1.39.
For AGGAGAATGC, the switch fluorescence ratio was 1.1.
In the case of AGGAGATAGG, the switch fluorescence ratio was 1.01.
With AGGAGATTGT the switch fluorescence ratio was 1.03.
For AGGAGCAAAT, the switch fluorescence ratio was 1.65.
For AGGAGGATGC, the switch fluorescence ratio was 0.873.
Sequence AGGAGGGCCT has a switch fluorescence ratio of 0.942.
In the case of AGGAGTCTTT, the switch fluorescence ratio was 0.951.
In the case of AGGAGTGAAG, the switch fluorescence ratio was 1.03.
With AGGATACGTC the switch fluorescence ratio was 0.947.
Work on AGGATAGCTA yielded a switch fluorescence ratio of 0.996.
Sequence AGGATAGTGG has a switch fluorescence ratio of 0.969.
In the case of AGGATCTCTT, the switch fluorescence ratio was 1.02.
Sequence AGGATGCGCT has a switch fluorescence ratio of 0.991.
Sequence AGGATTAATC has a switch fluorescence ratio of 0.959.
With AGGATTACAG the switch fluorescence ratio was 1.05.
For AGGATTCAGG, the switch fluorescence ratio was 0.988.
AGGCACAGGG was tested, and the switch fluorescence ratio was 1.06.
In the case of AGGCAGAGGG, the switch fluorescence ratio was 1.02.
Work on AGGCAGCTGA yielded a switch fluorescence ratio of 1.03.
AGGCAGTTCC showed a switch fluorescence ratio of 1.03.
In the case of AGGCAGTTTG, the switch fluorescence ratio was 0.982.
With AGGCATATTC the switch fluorescence ratio was 1.09.
Work on AGGCATCCTA yielded a switch fluorescence ratio of 0.986.
In the case of AGGCATGTTC, the switch fluorescence ratio was 0.981.
AGGCATTGAT showed a switch fluorescence ratio of 0.968.
AGGCATTTG showed a switch fluorescence ratio of 1.01.
In the case of AGGCCATGAA, the switch fluorescence ratio was 1.01.
In the case of AGGCCCGAAC, the switch fluorescence ratio was 1.08.
With AGGCCCGTGG the switch fluorescence ratio was 1.06.
AGGCCGGT gave a switch fluorescence ratio of 0.963.
For AGGCCGTCTT, the switch fluorescence ratio was 0.949.
AGGCCTGGTC gave a switch fluorescence ratio of 1.02.
In the case of AGGCGACAAA, the switch fluorescence ratio was 0.993.
AGGCGATCGT was tested, and the switch fluorescence ratio was 1.04.
AGGCGCTGTC was tested, and the switch fluorescence ratio was 1.06.
Sequence AGGCGGGTTT has a switch fluorescence ratio of 0.976.
AGGCGTCGCG showed a switch fluorescence ratio of 1.02.
Work on AGGCGTCTTG yielded a switch fluorescence ratio of 1.
With AGGCGTCTTT the switch fluorescence ratio was 0.99.
Sequence AGGCGTGAAT has a switch fluorescence ratio of 1.05.
AGGCGTTGCG was tested, and the switch fluorescence ratio was 0.96.
With AGGCTACAGC the switch fluorescence ratio was 1.02.
For AGGCTAGATG, the switch fluorescence ratio was 1.02.
AGGCTAGGTG gave a switch fluorescence ratio of 1.42.
AGGCTATTAA gave a switch fluorescence ratio of 0.991.
Sequence AGGCTGATCT has a switch fluorescence ratio of 0.993.
Work on AGGCTGTGCG yielded a switch fluorescence ratio of 1.02.
AGGCTTCAAG showed a switch fluorescence ratio of 1.04.
In the case of AGGCTTTTAG, the switch fluorescence ratio was 1.03.
In the case of AGGGAAAGAG, the switch fluorescence ratio was 1.32.
Work on AGGGAAGAC yielded a switch fluorescence ratio of 1.05.
In the case of AGGGAAGTGT, the switch fluorescence ratio was 0.987.
Sequence AGGGACACGT has a switch fluorescence ratio of 1.01.
AGGGACAGGT showed a switch fluorescence ratio of 0.999.
For AGGGACCCGG, the switch fluorescence ratio was 0.963.
With AGGGACCGCT the switch fluorescence ratio was 1.03.
Work on AGGGATATCA yielded a switch fluorescence ratio of 1.
AGGGATCTAG showed a switch fluorescence ratio of 0.984.
In the case of AGGGCAAAGG, the switch fluorescence ratio was 1.04.
With AGGGCACGTG the switch fluorescence ratio was 0.973.
AGGGCAGCAC gave a switch fluorescence ratio of 0.979.
With AGGGCCCAAT the switch fluorescence ratio was 1.
For AGGGCCTGCA, the switch fluorescence ratio was 1.
AGGGCGATTC showed a switch fluorescence ratio of 1.02.
AGGGCGCAGG gave a switch fluorescence ratio of 0.922.
In the case of AGGGCGCATA, the switch fluorescence ratio was 1.03.
AGGGCGCTCT was tested, and the switch fluorescence ratio was 0.95.
AGGGCGTGAG gave a switch fluorescence ratio of 1.
AGGGCGTGTG showed a switch fluorescence ratio of 1.01.
AGGGCTGGGA gave a switch fluorescence ratio of 1.03.
AGGGGACATC was tested, and the switch fluorescence ratio was 1.03.
For AGGGGAGCGG, the switch fluorescence ratio was 1.04.
AGGGGCATTG was tested, and the switch fluorescence ratio was 0.984.
Work on AGGGGGACC yielded a switch fluorescence ratio of 1.06.
For AGGGGGCTTC, the switch fluorescence ratio was 1.01.
In the case of AGGGGGTGAT, the switch fluorescence ratio was 1.01.
Sequence AGGGGTCAAC has a switch fluorescence ratio of 0.969.
Sequence AGGGGTCAGC has a switch fluorescence ratio of 0.946.
Work on AGGGGTGTGA yielded a switch fluorescence ratio of 1.01.
AGGGTAACCG showed a switch fluorescence ratio of 1.03.
AGGGTAAGGG gave a switch fluorescence ratio of 0.991.
For AGGGTCAGAG, the switch fluorescence ratio was 0.989.
Work on AGGGTCATGT yielded a switch fluorescence ratio of 1.03.
Sequence AGGGTCCCTC has a switch fluorescence ratio of 1.01.
In the case of AGGGTCCGCT, the switch fluorescence ratio was 1.05.
Sequence AGGGTCTTCA has a switch fluorescence ratio of 0.983.
For AGGGTGCAAA, the switch fluorescence ratio was 0.963.
In the case of AGGGTGGGCA, the switch fluorescence ratio was 0.989.
Sequence AGGGTGTAGT has a switch fluorescence ratio of 0.994.
AGGGTTAAAA gave a switch fluorescence ratio of 0.98.
Work on AGGGTTAAAG yielded a switch fluorescence ratio of 1.01.
For AGGGTTCATG, the switch fluorescence ratio was 1.
In the case of AGGGTTCCCC, the switch fluorescence ratio was 1.03.
In the case of AGGGTTGACC, the switch fluorescence ratio was 1.
AGGGTTGGCG showed a switch fluorescence ratio of 0.971.
In the case of AGGGTTGTAC, the switch fluorescence ratio was 1.04.
For AGGGTTTAGA, the switch fluorescence ratio was 0.98.
Sequence AGGTAAAACT has a switch fluorescence ratio of 1.
In the case of AGGTAACTGC, the switch fluorescence ratio was 1.05.
For AGGTAAGGTC, the switch fluorescence ratio was 1.02.
In the case of AGGTAGATA, the switch fluorescence ratio was 0.914.
AGGTAGCAAC was tested, and the switch fluorescence ratio was 1.24.
In the case of AGGTAGCCAG, the switch fluorescence ratio was 1.
In the case of AGGTCAAACC, the switch fluorescence ratio was 1.24.
AGGTCAGCGG showed a switch fluorescence ratio of 0.938.
AGGTCAGGGG was tested, and the switch fluorescence ratio was 1.09.
With AGGTCATTAA the switch fluorescence ratio was 0.967.
In the case of AGGTCCAAGG, the switch fluorescence ratio was 1.
In the case of AGGTCCAGGC, the switch fluorescence ratio was 1.06.
Sequence AGGTCCTGTT has a switch fluorescence ratio of 0.971.
Work on AGGTCTCCGC yielded a switch fluorescence ratio of 1.72.
In the case of AGGTCTCGAT, the switch fluorescence ratio was 0.968.
In the case of AGGTCTTAAG, the switch fluorescence ratio was 0.99.
AGGTGAAGCA showed a switch fluorescence ratio of 1.01.
AGGTGCTGAG was tested, and the switch fluorescence ratio was 1.01.
Sequence AGGTGGCCCT has a switch fluorescence ratio of 0.986.
AGGTGGGCCT was tested, and the switch fluorescence ratio was 1.06.
AGGTGGGTAT was tested, and the switch fluorescence ratio was 1.01.
Work on AGGTGGTTTA yielded a switch fluorescence ratio of 0.986.
With AGGTGTCAAG the switch fluorescence ratio was 1.
Work on AGGTGTCCAT yielded a switch fluorescence ratio of 1.
AGGTGTCGGC was tested, and the switch fluorescence ratio was 0.961.
AGGTGTCTAT was tested, and the switch fluorescence ratio was 1.01.
AGGTGTGAAG was tested, and the switch fluorescence ratio was 0.947.
In the case of AGGTGTGAGT, the switch fluorescence ratio was 0.997.
In the case of AGGTGTGGAG, the switch fluorescence ratio was 1.02.
AGGTGTTGTG showed a switch fluorescence ratio of 0.99.
AGGTTAAGTG showed a switch fluorescence ratio of 0.987.
Work on AGGTTACTAT yielded a switch fluorescence ratio of 0.998.
In the case of AGGTTAGCCT, the switch fluorescence ratio was 0.973.
In the case of AGGTTATTCG, the switch fluorescence ratio was 0.984.
In the case of AGGTTCCGGC, the switch fluorescence ratio was 0.979.
AGGTTCGAGT was tested, and the switch fluorescence ratio was 0.943.
For AGGTTTACTT, the switch fluorescence ratio was 1.03.
In the case of AGGTTTATAA, the switch fluorescence ratio was 0.997.
In the case of AGGTTTCTGT, the switch fluorescence ratio was 0.991.
AGGTTTGCTG was tested, and the switch fluorescence ratio was 0.862.
AGTAAAAGGT showed a switch fluorescence ratio of 0.949.
With AGTAACGGG the switch fluorescence ratio was 0.992.
For AGTAACTTCT, the switch fluorescence ratio was 0.994.
In the case of AGTAAGCAAT, the switch fluorescence ratio was 2.18.
With AGTAAGCTGG the switch fluorescence ratio was 1.07.
Sequence AGTAAGTGCG has a switch fluorescence ratio of 1.04.
AGTAATATCG showed a switch fluorescence ratio of 1.01.
With AGTAATGTT the switch fluorescence ratio was 0.99.
With AGTAATGTTA the switch fluorescence ratio was 0.95.
In the case of AGTAATTAG, the switch fluorescence ratio was 0.969.
Sequence AGTAATTCA has a switch fluorescence ratio of 0.977.
For AGTAATTCGG, the switch fluorescence ratio was 1.01.
With AGTACAGTG the switch fluorescence ratio was 1.07.
In the case of AGTACCGCTT, the switch fluorescence ratio was 1.1.
AGTACGAGGG showed a switch fluorescence ratio of 0.993.
For AGTACGCCTT, the switch fluorescence ratio was 1.01.
AGTAGAGGGC was tested, and the switch fluorescence ratio was 1.01.
With AGTAGCACGG the switch fluorescence ratio was 1.04.
Sequence AGTAGTAATG has a switch fluorescence ratio of 0.973.
AGTATCCAGG showed a switch fluorescence ratio of 1.08.
AGTATCTTGC was tested, and the switch fluorescence ratio was 0.959.
For AGTATGCAGC, the switch fluorescence ratio was 0.984.
For AGTATGGAAC, the switch fluorescence ratio was 1.03.
In the case of AGTATGTGTT, the switch fluorescence ratio was 0.985.
In the case of AGTATTATCC, the switch fluorescence ratio was 1.
With AGTATTTCGG the switch fluorescence ratio was 0.936.
AGTATTTCTG was tested, and the switch fluorescence ratio was 1.05.
AGTATTTTGA was tested, and the switch fluorescence ratio was 0.979.
AGTCACATCC was tested, and the switch fluorescence ratio was 1.05.
AGTCAGCTAT gave a switch fluorescence ratio of 1.04.
Sequence AGTCATAATT has a switch fluorescence ratio of 1.
Sequence AGTCATTGGT has a switch fluorescence ratio of 1.02.
Sequence AGTCCATGTG has a switch fluorescence ratio of 1.08.
Sequence AGTCCTCTCG has a switch fluorescence ratio of 1.16.
AGTCCTTTAT showed a switch fluorescence ratio of 0.993.
AGTCGAATCG was tested, and the switch fluorescence ratio was 0.999.
For AGTCGAATTA, the switch fluorescence ratio was 0.984.
AGTCGACCTT showed a switch fluorescence ratio of 1.03.
Sequence AGTCGATCGT has a switch fluorescence ratio of 1.01.
Sequence AGTCGATGC has a switch fluorescence ratio of 0.989.
AGTCGCAATA showed a switch fluorescence ratio of 2.5.
AGTCGCTGGT gave a switch fluorescence ratio of 0.993.
Work on AGTCGGCAAC yielded a switch fluorescence ratio of 1.37.
Work on AGTCGTCAGA yielded a switch fluorescence ratio of 1.
